In publication PMC13083723 (Patterns, 2026):
The campaign covered roughly 5,400 compounds. About 190 (3.5%) showed an effect of 50% or more. Some of the results follow.

Each compound was assayed on Vero-E6 (assay: primary screen, phospholipidosis by LipidTOX staining; higher = more effect of the substance). Conditions: 10 µM.
Description: To measure drug-induced PLD in Vero-E6 cells, we used the HCS LipidTOX Red Phospholipidosis Detection Reagent (Invitrogen, #H34351), which is non-toxic to cell growth and remains well retained after aldehyde fixation. In this setup, compounds (at 10 μM concentration) and controls (amiodarone: 10 μM concentration; DMSO: 0.1 v/v %) were added to clear-bottom, 384-well plates (PhenoPlate 384-well, black, optically clear flat bottom, tissue-culture treated, Revvity #6057302) using the Echo Liquid Handler (Labcyte).

Question: Which result_ITMP does the source give for `O=C(CCCN1CC=C(n2c(=O)[nH]c3ccccc32)CC1)c1ccc(F)cc1` here?
Answer: The result_ITMP was 2.35%.

Question: `C[C@@]1(F)[C@H](O)[C@@H](CO)O[C@H]1n1ccc(N)nc1=O` was tested. Which result_ITMP did it give?
Answer: Its result_ITMP is -1.58%.

Question: Which result_ITMP does the source give for `CCCCCCCC/C=C\CCCCCCCC(=O)N[C@@H](CO)Cc1ccc(O)cc1` here?
Answer: Its result_ITMP is -1.63%.

Question: `CCCN(CCC)C1CCc2ccc(O)cc2C1` (centres unmarked) was tested. Which result_ITMP did it give?
Answer: Its result_ITMP is 13.4%.

Question: `Oc1c(I)cc(I)c2cccnc12` was tested. Which result_ITMP did it give?
Answer: The result_ITMP was -3.2%.

Question: Which result_ITMP does the source give for `O=C(N[C@H](Cc1ccccc1)C(=O)O)c1sc2cc(F)ccc2c1Cl` here?
Answer: The result_ITMP was -1.39%.

Question: With `CCCCn1ccc(N2CCC(c3ccccc3)CC2)c(Cl)c1=O` as the compound, how does the result_ITMP read?
Answer: Its result_ITMP is -1.57%.

Question: For `C#CCN(C)Cc1ccccc1`, which result_ITMP is on record?
Answer: Its result_ITMP is -4.32%.

Question: How did the result_ITMP turn out when `Cc1cc(C)c(N)c(C#Cc2cccc(F)c2)n1` was run?
Answer: The result_ITMP was -8.54%.

Question: How did the result_ITMP turn out when `CN(C)c1ccc(C(=O)NCCCCCCC(=O)NO)cc1` was run?
Answer: The result_ITMP was -7.81%.

Question: How did the result_ITMP turn out when `CCCCCC(C)N` (centres unmarked) was run?
Answer: Its result_ITMP is -1%.

Question: `COc1ccc2cc(CCC(C)=O)ccc2c1` was tested. Which result_ITMP did it give?
Answer: The result_ITMP was -6.81%.

Question: Which result_ITMP does the source give for `Cc1cccc(/C=C/c2ccccc2)n1` here?
Answer: Its result_ITMP is -1.79%.

Question: `CCn1cc(C(=O)O)c(=O)c2ccc(C)nc21` was tested. Which result_ITMP did it give?
Answer: The result_ITMP was -1.64%.

Question: For `Cc1cc(C)cc(C(=O)N(C)[C@H](Cc2ccc(-c3ccccc3)cc2)C(=O)N[C@@H](Cc2c[nH]c3ccccc23)C(=O)O)c1`, which result_ITMP is on record?
Answer: Its result_ITMP is -0.52%.

Question: `COc1ccc(-c2oc3c(CC=C(C)C)c(O[C@@H]4O[C@H](CO)[C@@H](O)[C@H](O)[C@H]4O)cc(O)c3c(=O)c2O[C@@H]2O[C@@H](C)[C@H](O)[C@@H](O)[C@H]2O)cc1` was tested. Which result_ITMP did it give?
Answer: The result_ITMP was -0.72%.

Question: How did the result_ITMP turn out when `CCCCCCCCCCCCCCCC(=O)OCCC1CCN(CCCN2c3ccccc3Sc3ccc(S(=O)(=O)N(C)C)cc32)CC1` was run?
Answer: The result_ITMP was -5.2%.

Question: How did the result_ITMP turn out when `COc1ccc(OC)c(CN(C(C)=O)c2cc(F)ccc2Oc2ccccc2)c1` was run?
Answer: Its result_ITMP is -2.6%.

Question: With `Cc1ccc(S(=O)(=O)NC(=O)NN2CC3CCCC3C2)cc1` (centres unmarked) as the compound, how does the result_ITMP read?
Answer: The result_ITMP was -6.34%.

Question: Which result_ITMP does the source give for `COCc1nnc(N2CC(Oc3ccc(F)cc3Cl)C2)n1-c1ccc(OC)nc1` here?
Answer: Its result_ITMP is -7.42%.

Question: How did the result_ITMP turn out when `Nc1nc(S)c2ncn([C@@H]3O[C@H](CO)[C@@H](O)[C@H]3O)c2n1` was run?
Answer: Its result_ITMP is 19.1%.

Question: `c1ccc(C2CN3CCSC3=N2)cc1` (centres unmarked) [R4A_0001404_001 / SPE_K73107279] was tested. Which result_ITMP did it give?
Answer: Its result_ITMP is -7.98%.

Question: With `c1ccc(C(NCCNC(c2ccccc2)c2ccccc2)c2ccccc2)cc1` as the compound, how does the result_ITMP read?
Answer: Its result_ITMP is 30.1%.

Question: For `NC(N)=NCCC[C@H](NC(=O)c1sccc1NS(=O)(=O)c1cccc2nsnc12)C(=O)O`, which result_ITMP is on record?
Answer: The result_ITMP was 3.71%.

Question: Which result_ITMP does the source give for `O=c1c(O)c(-c2cc(O)c(O)c(O)c2)oc2cc(O)cc(O)c12` here?
Answer: Its result_ITMP is -9.27%.

Question: With `CC(C)(C)C(=O)Oc1ccc(S(=O)(=O)Nc2ccccc2C(=O)NCC(=O)[O-])cc1` as the compound, how does the result_ITMP read?
Answer: The result_ITMP was -1.15%.
